# Experimental data taken from the supplement of paper PMC8728848.
# The other results are listed elsewhere or left out.
# B1: OrfX (Escherichia coli), Q9X4B6_ECOLX (protein)
# chain: MIKIARIAVTLGLLSSLGAQAYAAGLVVNDNDLRNDLAWLSDRGVIHLSLSTWPLSQEEIARALKKAKPSYSSEQVVLARINQRLSALKADFRVTGYTSTDQPGTPQGFGQTQPADNSLGLAFNNSGEWWDVHLQGNVEGGERISNGSRFNANGAYGAVKFWNQWLSFGQVPQWWGPGYEGSLIRGDAMRPMTGFLMQRAEQAAPETWWLRWVGPWQYQISASQMNQYTAVPHAKIIGGRFTFTPFQSLELGASRIMQWGGEGRPQSFSSFWDGFTGHDNTGTDNEPGNQLAGFDFKFKLEPTLGWPVSFYGQMVGEDESGYLPSANMFLGGVEGHHGWGKDTVNWYVEAHDTRTNMSRTNYSYTHHIYKDGYYQQGYPLGDAMGGDGQLIAGKVELITEDNQRWSTRLVYAKVNPENQSINKAFPHADTLKGLQLGWSGDVYQSVRLNTSLWYTNANNSDSDDVGASAGIEIPFSL
# Legend:
# Test in all cases: glycan array binding signal (z-score within array); higher = stronger binding
# Settings in all cases: glycan notation: IUPAC condensed, linker removed
# [1] = target: Neu5Ac(a2-3)Gal(b1-4)GlcNAc(b1-3)Gal(b1-4)[Fuc(a1-3)]GlcNAc
# Procedure, shortened: (§1)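 Glycan array binding is given as a within-array Z-score, which can be read as non-binding when negative. The arrays, 3228 of them, came from the Consortium for Functional Glycomics database and were retained only where the protein sequence was available. Z-scores were averaged across arrays of the same protein sequence at different concentrations or buffers and across linkers.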
# [2] = target: Neu5Ac(a2-3)Gal(b1-4)GlcNAc(b1-3)GalNAc
# Procedure, shortened: as §1
# [3] = target: Neu5Ac(a2-3)Gal(b1-4)GlcNAc(b1-3)[Neu5Ac(a2-3)Gal(b1-4)GlcNAc(b1-6)]GalNAc
# Procedure, shortened: as §1
# [4] = target: Neu5Ac(a2-3)Gal(b1-4)GlcNAc(b1-6)GalNAc
# Procedure, shortened: as §1
# [5] = target: Neu5Ac(a2-3)Gal(b1-4)GlcNAc(b1-6)[Gal(b1-3)]GalNAc
# Procedure, shortened: as §1
# [6] = target: Neu5Ac(a2-3)Gal(b1-4)GlcNAc(b1-6)[Neu5Ac(a2-3)Gal(b1-3)]GalNAc
# Procedure, shortened: as §1
# [7] = target: Neu5Ac(a2-3)Gal(b1-4)GlcNAc6S
# Procedure, shortened: as §1
# [8] = target: Neu5Ac(a2-3)Gal(b1-4)[Fuc(a1-3)]GlcNAc
# Procedure, shortened: as §1
# [9] = target: Neu5Ac(a2-3)Gal(b1-4)[Fuc(a1-3)]GlcNAc(b1-3)Gal
# Procedure, shortened: as §1
# [10] = target: Neu5Ac(a2-3)Gal(b1-4)[Fuc(a1-3)]GlcNAc(b1-3)Gal(b1-4)GlcNAc
# Procedure, shortened: as §1
# [11] = target: Neu5Ac(a2-3)Gal(b1-4)[Fuc(a1-3)]GlcNAc(b1-3)Gal(b1-4)[Fuc(a1-3)]GlcNAc(b1-3)Gal(b1-4)[Fuc(a1-3)]GlcNAc
# Procedure, shortened: as §1
# [12] = target: Neu5Ac(a2-3)Gal(b1-4)[Fuc(a1-3)]GlcNAc(b1-3)GalNAc
# Procedure, shortened: as §1
# [13] = target: Neu5Ac(a2-3)Gal(b1-4)[Fuc(a1-3)]GlcNAc(b1-6)[Gal(b1-3)]GalNAc
# Procedure, shortened: as §1
# [14] = target: Neu5Ac(a2-3)Gal(b1-4)[Fuc(a1-3)]GlcNAc6S
# Procedure, shortened: as §1
# [15] = target: Neu5Ac(a2-3)Gal6S(b1-4)GlcNAc
# Procedure, shortened: as §1
# [16] = target: Neu5Ac(a2-3)Gal6S(b1-4)[Fuc(a1-3)]GlcNAc
# Procedure, shortened: as §1
# Neu5Ac(a2-3)GalNAc = target: Neu5Ac(a2-3)GalNAc
# Procedure, shortened: as §1
# [17] = target: Neu5Ac(a2-3)GalNAc(b1-4)GlcNAc
# Procedure, shortened: as §1
# [18] = target: Neu5Ac(a2-3)[GalNAc(b1-4)]Gal(b1-4)Glc
# Procedure, shortened: as §1
# [19] = target: Neu5Ac(a2-3)[GalNAc(b1-4)]Gal(b1-4)GlcNAc
# Procedure, shortened: as §1
# [20] = target: Neu5Ac(a2-3)[GalNAc(b1-4)]Gal(b1-4)GlcNAc(b1-3)GalNAc
# Procedure, shortened: as §1
# [21] = target: Neu5Ac(a2-3)[Neu5Ac(a2-6)]GalNAc
# Procedure, shortened: as §1
# Neu5Ac(a2-6)Gal = target: Neu5Ac(a2-6)Gal
# Procedure, shortened: as §1
# [22] = target: Neu5Ac(a2-6)Gal(b1-3)GlcNAc(b1-3)[Gal(b1-4)GlcNAc(b1-6)]Gal(b1-4)Glc
# Procedure, shortened: as §1
# Neu5Ac(a2-6)Gal(b1-4)Glc = target: Neu5Ac(a2-6)Gal(b1-4)Glc
# Procedure, shortened: as §1
# [23] = target: Neu5Ac(a2-6)Gal(b1-4)GlcNAc
# Procedure, shortened: as §1
# [24] = target: Neu5Ac(a2-6)Gal(b1-4)GlcNAc(b1-2)Man(a1-3)Man(b1-4)GlcNAc(b1-4)GlcNAc
# Procedure, shortened: as §1
# [25] = target: Neu5Ac(a2-6)Gal(b1-4)GlcNAc(b1-2)Man(a1-3)[Gal(b1-4)GlcNAc(b1-2)Man(a1-6)]Man(b1-4)GlcNAc(b1-4)GlcNAc
# Procedure, shortened: as §1
# [26] = target: Neu5Ac(a2-6)Gal(b1-4)GlcNAc(b1-2)Man(a1-3)[GlcNAc(b1-2)Man(a1-6)]Man(b1-4)GlcNAc(b1-4)GlcNAc
# Procedure, shortened: as §1
# [27] = target: Neu5Ac(a2-6)Gal(b1-4)GlcNAc(b1-2)Man(a1-3)[GlcNAc(b1-2)Man(b1-4)GlcNAc(b1-2)Man(a1-6)]Man(b1-4)GlcNAc(b1-4)GlcNAc
# Procedure, shortened: as §1
# [28] = target: Neu5Ac(a2-6)Gal(b1-4)GlcNAc(b1-2)Man(a1-3)[Man(a1-6)]Man(b1-4)GlcNAc(b1-4)GlcNAc
# Procedure, shortened: as §1
# [29] = target: Neu5Ac(a2-6)Gal(b1-4)GlcNAc(b1-2)Man(a1-3)[Neu5Ac(a2-6)Gal(b1-4)GlcNAc(b1-2)Man(a1-6)]Man(b1-4)GlcNAc(b1-4)GlcNAc
# Procedure, shortened: as §1
# [30] = target: Neu5Ac(a2-6)Gal(b1-4)GlcNAc(b1-2)Man(a1-3)[Neu5Ac(a2-6)Gal(b1-4)GlcNAc(b1-2)Man(a1-6)]Man(b1-4)GlcNAc(b1-4)[Fuc(a1-6)]GlcNAc
# Procedure, shortened: as §1
# [31] = target: Neu5Ac(a2-6)Gal(b1-4)GlcNAc(b1-2)Man(a1-6)Man(b1-4)GlcNAc(b1-4)GlcNAc
# Procedure, shortened: as §1
# [32] = target: Neu5Ac(a2-6)Gal(b1-4)GlcNAc(b1-2)Man(a1-6)[Gal(b1-4)GlcNAc(b1-2)Man(a1-3)]Man(b1-4)GlcNAc(b1-4)GlcNAc
# Procedure, shortened: as §1
# [33] = target: Neu5Ac(a2-6)Gal(b1-4)GlcNAc(b1-2)Man(a1-6)[GlcNAc(b1-2)Man(a1-3)]Man(b1-4)GlcNAc(b1-4)GlcNAc
# Procedure, shortened: as §1
binder,measurement,setting,value
B1,glycan array binding signal (z-score),[1],-0.258
same,glycan array binding signal (z-score),[2],-0.138
same,glycan array binding signal (z-score),[3],-0.029
same,glycan array binding signal (z-score),[4],-0.258
same,glycan array binding signal (z-score),[5],-0.37
same,glycan array binding signal (z-score),[6],-0.243
same,glycan array binding signal (z-score),[7],-0.265
same,glycan array binding signal (z-score),[8],-0.281
same,glycan array binding signal (z-score),[9],-0.262
same,glycan array binding signal (z-score),[10],-0.249
same,glycan array binding signal (z-score),[11],-0.34
same,glycan array binding signal (z-score),[12],7.1
same,glycan array binding signal (z-score),[13],-0.032
same,glycan array binding signal (z-score),[14],-0.285
same,glycan array binding signal (z-score),[15],-0.109
same,glycan array binding signal (z-score),[16],-0.372
same,glycan array binding signal (z-score),Neu5Ac(a2-3)GalNAc,-0.289
same,glycan array binding signal (z-score),[17],-0.304
same,glycan array binding signal (z-score),[18],-0.287
same,glycan array binding signal (z-score),[19],0.199
same,glycan array binding signal (z-score),[20],-0.205
same,glycan array binding signal (z-score),[21],-0.289
same,glycan array binding signal (z-score),Neu5Ac(a2-6)Gal,-0.031
same,glycan array binding signal (z-score),[22],-0.156
same,glycan array binding signal (z-score),Neu5Ac(a2-6)Gal(b1-4)Glc,-0.126
same,glycan array binding signal (z-score),[23],-0.318
same,glycan array binding signal (z-score),[24],-0.428
same,glycan array binding signal (z-score),[25],-0.395
same,glycan array binding signal (z-score),[26],-0.308
same,glycan array binding signal (z-score),[27],-0.54
same,glycan array binding signal (z-score),[28],-0.426
same,glycan array binding signal (z-score),[29],-0.228
same,glycan array binding signal (z-score),[30],-0.386
same,glycan array binding signal (z-score),[31],-0.314
same,glycan array binding signal (z-score),[32],-0.286
same,glycan array binding signal (z-score),[33],-0.293
